# Among all 310,000 compounds or so, about 2,200 (0.71%) showed an effect of 50% or more. Effects have a minus sign here. This is one part of the list.
# Target: human ether-à-go-go-related gene (hERG) potassium channel (human, UniProt Q12809)
# Experiment: primary screen, population patch clamp on CHO cells stably expressing hERG
# Chain of human ether-à-go-go-related gene (hERG) potassium channel (Q12809 whole entry, looked up): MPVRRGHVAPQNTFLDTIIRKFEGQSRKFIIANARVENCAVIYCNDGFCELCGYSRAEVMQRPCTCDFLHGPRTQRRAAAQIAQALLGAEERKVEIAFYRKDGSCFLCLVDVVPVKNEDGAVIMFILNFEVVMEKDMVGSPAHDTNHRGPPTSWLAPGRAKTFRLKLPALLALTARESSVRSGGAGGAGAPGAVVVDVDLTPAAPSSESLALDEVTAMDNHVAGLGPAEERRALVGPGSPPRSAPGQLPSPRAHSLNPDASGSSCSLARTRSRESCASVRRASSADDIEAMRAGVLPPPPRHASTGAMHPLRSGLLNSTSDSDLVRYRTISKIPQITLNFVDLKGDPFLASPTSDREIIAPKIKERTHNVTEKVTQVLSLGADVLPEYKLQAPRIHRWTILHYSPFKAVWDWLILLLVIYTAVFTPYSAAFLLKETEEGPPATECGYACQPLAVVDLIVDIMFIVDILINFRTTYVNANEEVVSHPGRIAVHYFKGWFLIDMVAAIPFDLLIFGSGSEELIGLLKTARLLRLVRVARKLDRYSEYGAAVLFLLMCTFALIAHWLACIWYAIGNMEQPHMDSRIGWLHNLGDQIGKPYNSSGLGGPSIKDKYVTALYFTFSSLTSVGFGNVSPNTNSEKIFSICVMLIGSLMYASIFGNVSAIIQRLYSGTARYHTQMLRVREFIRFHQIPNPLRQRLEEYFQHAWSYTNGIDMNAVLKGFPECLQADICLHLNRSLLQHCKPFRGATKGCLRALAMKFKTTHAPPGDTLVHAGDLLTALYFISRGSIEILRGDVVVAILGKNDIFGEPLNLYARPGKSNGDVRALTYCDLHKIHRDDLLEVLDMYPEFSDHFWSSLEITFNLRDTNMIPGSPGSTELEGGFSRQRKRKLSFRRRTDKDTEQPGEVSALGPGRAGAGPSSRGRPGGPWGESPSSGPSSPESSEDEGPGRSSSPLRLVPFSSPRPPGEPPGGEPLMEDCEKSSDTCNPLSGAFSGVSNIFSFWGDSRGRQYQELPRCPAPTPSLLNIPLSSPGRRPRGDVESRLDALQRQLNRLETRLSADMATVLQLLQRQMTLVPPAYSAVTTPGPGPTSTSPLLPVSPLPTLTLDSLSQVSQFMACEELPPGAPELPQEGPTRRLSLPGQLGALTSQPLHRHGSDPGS
row,Compound,"hERG current change (%, negative = inhibition) at 1uM"
1,O=C(NCc1ccccn1)NC12CC3CC(CC(C3)C1)C2,11.9%
2,COc1ccc(/C(C)=N/N2CCCCC2)c(O)c1,11.8%
3,Cc1c2n(c3ccccc13)CC/C2=N\O,-3.66%
4,COC(=O)C(O)(CC(=O)Nc1cccc(SC)c1)C(F)(F)F (centres unmarked),20.2%
5,Nc1ccc(N2C(=O)c3ccccc3C2=O)c(Cl)c1,18%
6,O=C(NNC(=O)C1CCCN(c2ncccn2)C1)c1ccncc1 (centres unmarked),4.84%
7,CNC(=O)Cc1csc2ccc(C)cc12,7.66%
8,CCc1ccc(CCC(=O)Nc2ccc(C)c(C)c2)o1,10.2%
9,Oc1ccc(N=Nc2nccs2)c(O)c1,18.5%
10,Nc1cccc(-c2nc3cc(S(=O)(=O)c4ccc5oc(-c6cccc(N)c6)nc5c4)ccc3o2)c1,7.82%
11,O=C(CCn1c(=O)sc2ccccc21)NCc1cccs1,7.82%
12,COc1cccc(N2CCN(C(=O)c3ccc(Cl)c(NC4=NC5CS(=O)(=O)CC5S4)c3)CC2)c1 (centres unmarked),13.1%
13,O=C(O)CCc1ccc(-c2cccs2)n1NC(=O)c1cccs1,20%
14,CCCCOC(=O)C1[C@H]2C(=O)N(Cc3cccs3)C[C@]23C=C[C@H]1O3 (some centres unmarked),0.149%
15,CC1(C)CC2C1CCC1(O)CC2(C)CCC1N(O)c1ccc(C(=O)NCCO)cn1 (centres unmarked),11%
16,Cc1c(C(C)(C)C)s/c(=N/S(=O)(=O)c2ccccc2)n1C,12.6%
17,O=C(CCCC(=O)OCC(Cl)=C(Cl)Cl)Nc1cccc(F)c1,0.376%
18,CN(CCCC(=O)NCc1ccco1)S(=O)(=O)c1ccccc1,3.19%
19,CN(CCO)c1nc(N)c2c(N)nc3c(c2c1C#N)CC(=O)N3C1CCCC1,-2.55%
20,O=C(CSc1nnc(NC(=O)C2CC2)s1)Nc1ccccc1,11.4%

row,Compound,"hERG current change (%, negative = inhibition) at 1uM"
1,COC(=O)c1ccc(OCc2nc(N)nc(N3CCOCC3)n2)cc1,10.2%
2,CN1CCN(NC(=O)/C=C/c2ccc(C(C)(C)C)cc2)CC1,7.12%
3,COc1ccc(CCNC(=S)N2CCC(C(N)=O)CC2)cc1,9.77%
4,c1nc(N2CCC3(CC2)OCCO3)c2c3c(sc2n1)CCCC3,3.39%
5,COc1ccc(CCN/C=C2/CC(=O)NC2=O)cc1OC,12.8%
6,COc1ccccc1C1/C(=C(/O)c2ccccc2)C(=O)C(=O)N1CCO (centres unmarked),9.58%
7,NS(=O)(=O)c1cccc(NS(=O)(=O)c2ccc(/C=C/C(=O)O)cc2)c1,15.9%
8,COCCN(Cc1ccccc1)C(=S)Nc1ccc(Cl)cc1,10%
9,C/C(=N\NC(=O)c1nn(C)cc1Br)c1ccc(NC(=O)c2ccncc2)cc1,10.6%
10,O=c1cc[nH]c2c(C(F)(F)F)cccc12,2.22%
11,CC1(OC(=O)C2CCCC2)C(=O)C=C2C=C(c3ccsc3)N(CC3CC3)C=C2C1=O (centres unmarked),11.4%
12,Cc1ccc(NC(=O)c2c(F)cccc2Cl)cc1NS(C)(=O)=O,16.8%
13,CCOC(=O)CC1C(=O)NCCN1c1nc2c(C)cccn2c(=O)c1/C=C1\SC(=S)N(C(C)CC)C1=O (centres unmarked),9.18%
14,O=C1c2cccc3cccc(c23)C(=O)N1c1ccccc1Cl,13.2%
15,COc1ccc(S(=O)(=O)N(C)CC(=O)N2CCN(c3ccccc3)CC2)cc1,2.13%
16,COc1ccc(-c2csc(NC(CO)c3nc4ccccc4n3CCCO)n2)cc1 (centres unmarked),6.97%
17,O=C(CCNC(=O)c1ccccc1)OCN1C(=O)c2ccccc2C1=O,6.06%
18,CCOc1ccc(C2/C(=C(\O)c3ccc4c(c3)OCCO4)C(=O)C(=O)N2CCN2CCOCC2)cc1OC (centres unmarked),10.9%
19,Clc1ccccc1-c1nnc(CNC2CC2)o1,14.8%
20,CCOc1cc(/C=C2/C(=O)ON=C2C)ccc1OCc1ccccc1,10.4%

row,Compound,"hERG current change (%, negative = inhibition) at 1uM"
1,c1ccc2c(c1)ncn2CCn1cnc2ccccc21,-25.7%
2,COc1ccc(C(CNC(=O)c2cccc(S(=O)(=O)Nc3ccc(C)cc3)c2)N2CCOCC2)cc1 (centres unmarked),5.85%
3,CCOC(=O)c1oc2cccc(OC(C)=O)c2c1C,4.9%
4,CCNC(=O)N1CCCC(C(=O)c2ccc(C(F)(F)F)cc2)C1 (centres unmarked),6.8%
5,CN(Cc1cccc2ccccc12)C(=O)c1cc(COc2c(F)cccc2F)on1,18.7%
6,Cc1ncc([N+](=O)[O-])n1CC(=O)Nc1ccc(F)c(F)c1,14%
7,Cc1ccc(OP(=O)(NCc2ccccc2)Oc2ccc(C)cc2)cc1,3.19%
8,COc1ccc(-c2nc(NC(=O)Cn3cnnn3)sc2C)cc1,11.9%
9,COCCCN1CN(Cc2ccco2)CNC1=S,5.49%
10,COc1ccccc1CNC(=O)CN1c2cccc3cccc(c23)S1(=O)=O,7.16%
11,O=C(COC(=O)c1cccs1)NC12CC3CC(CC(C3)C1)C2,4.56%
12,CCOc1ccc(Cc2nnc(SCC(=O)c3ccc(OC)cc3)o2)cc1,9.17%
13,O=C1C=C(/C=C/c2ccccc2)C[C@@H](c2ccc(F)cc2)C1,9.08%
14,Cc1ccc(-c2nc3ccccc3n2C)o1,11.7%
15,NC1=NN=C(N2N=C(c3ccc(Br)cc3)CC2(O)C(F)(F)F)n2ncnc2C1 (centres unmarked),4.73%
16,Cc1cc(F)ccc1NC(=O)Cn1c(C)csc1=O,15.1%
17,CC(C)(C)C(=O)COC(=O)c1ccccc1O,10.9%
18,CC(C)(C)NC(=O)CSc1n[nH]c(=O)n1-c1ccccc1,11.7%
19,O=C(c1cccnc1)N1CCN(S(=O)(=O)c2ccc(F)cc2)CC1,13.1%

# Source: PMC4336329 (PLoS ONE, 2015)
